These are yes or no findings as the source states them, for the method shown. For part of these data: Binding seen in cells or lysates may run through a third protein. Some binding calls cover weakened binding; strength is not graded here. For part of these data: Sequences can lack the tags named with a protein. One block for each molecule: values may come before it.
Experiments:
[1] = molecular target: T1, PIN2/TERF1-interacting telomerase inhibitor 1 (PinX1), purified wild type (UniProt Q96BK5); test: pull-down; purified PinX1 (3 mg) immobilised on a 1 ml HiTrap NHS-activated column; 1 mg NPM or NPM variant in PBS, 30 min at room temperature; washed with PBS, eluted with PBS with 1.5 M NaCl; SDS-PAGE; both purified
T1 sequence: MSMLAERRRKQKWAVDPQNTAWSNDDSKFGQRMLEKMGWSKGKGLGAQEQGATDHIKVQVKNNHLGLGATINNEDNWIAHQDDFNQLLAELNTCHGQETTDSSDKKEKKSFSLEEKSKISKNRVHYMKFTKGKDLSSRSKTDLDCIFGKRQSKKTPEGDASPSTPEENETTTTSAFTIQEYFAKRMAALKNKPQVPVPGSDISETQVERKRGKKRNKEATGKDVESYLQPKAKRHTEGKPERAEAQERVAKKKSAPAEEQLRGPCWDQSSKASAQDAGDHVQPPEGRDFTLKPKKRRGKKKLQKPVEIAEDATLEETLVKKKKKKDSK

Chains of the proteins cited; added tags and fusions are not shown. Lines headed by an entry give the natural chain unless they say otherwise; changes in a name come on top. Residues count along the entry.
UniProt P06748: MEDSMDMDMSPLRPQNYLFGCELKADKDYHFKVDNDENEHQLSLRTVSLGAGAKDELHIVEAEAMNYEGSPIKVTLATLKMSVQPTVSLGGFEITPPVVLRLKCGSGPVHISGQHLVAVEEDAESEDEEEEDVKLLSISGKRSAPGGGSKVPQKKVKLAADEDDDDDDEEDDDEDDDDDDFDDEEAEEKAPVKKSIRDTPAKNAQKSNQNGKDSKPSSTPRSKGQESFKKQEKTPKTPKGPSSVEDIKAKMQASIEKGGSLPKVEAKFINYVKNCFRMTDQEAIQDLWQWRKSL
myc-NPM aa83–294: residues 83-294 of P06748
UniProt O14746: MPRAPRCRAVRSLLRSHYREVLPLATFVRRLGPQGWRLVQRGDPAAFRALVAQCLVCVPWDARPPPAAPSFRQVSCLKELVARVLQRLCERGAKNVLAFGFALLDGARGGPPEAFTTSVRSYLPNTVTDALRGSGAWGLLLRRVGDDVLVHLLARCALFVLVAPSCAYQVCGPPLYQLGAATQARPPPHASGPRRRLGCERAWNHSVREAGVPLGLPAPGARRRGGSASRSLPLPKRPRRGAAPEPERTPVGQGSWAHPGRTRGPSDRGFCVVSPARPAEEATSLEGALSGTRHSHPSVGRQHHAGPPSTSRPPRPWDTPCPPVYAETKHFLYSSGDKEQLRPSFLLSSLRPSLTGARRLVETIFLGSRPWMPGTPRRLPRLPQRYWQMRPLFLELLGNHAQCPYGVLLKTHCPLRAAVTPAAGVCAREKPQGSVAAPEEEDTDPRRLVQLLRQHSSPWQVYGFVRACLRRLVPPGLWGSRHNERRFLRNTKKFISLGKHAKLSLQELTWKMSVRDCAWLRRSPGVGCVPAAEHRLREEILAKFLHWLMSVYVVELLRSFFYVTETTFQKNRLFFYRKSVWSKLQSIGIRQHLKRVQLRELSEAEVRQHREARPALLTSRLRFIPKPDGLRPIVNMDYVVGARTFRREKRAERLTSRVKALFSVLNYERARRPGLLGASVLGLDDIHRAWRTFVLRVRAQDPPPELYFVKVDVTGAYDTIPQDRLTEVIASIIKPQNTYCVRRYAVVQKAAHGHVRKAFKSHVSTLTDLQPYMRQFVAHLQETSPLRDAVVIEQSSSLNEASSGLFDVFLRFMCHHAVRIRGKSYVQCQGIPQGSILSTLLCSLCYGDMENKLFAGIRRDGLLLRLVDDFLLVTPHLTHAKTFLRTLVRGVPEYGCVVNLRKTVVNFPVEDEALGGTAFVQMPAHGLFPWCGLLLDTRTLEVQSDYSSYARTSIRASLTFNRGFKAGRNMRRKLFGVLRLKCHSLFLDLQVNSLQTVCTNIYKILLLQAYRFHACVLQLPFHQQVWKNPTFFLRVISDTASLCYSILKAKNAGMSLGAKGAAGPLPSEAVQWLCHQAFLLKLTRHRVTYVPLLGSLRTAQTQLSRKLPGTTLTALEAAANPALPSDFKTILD
myc-hTERT aa170–546: residues 170-546 of O14746
myc-hTERT aa326–620: residues 326-620 of O14746
myc-hTERT aa523–924: residues 523-924 of O14746

[2] = molecular target: T2, myc-PinX1 (UniProt Q96BK5); test: co-IP; transfected HEK293T lysates (50 mM Tris pH 7.6, 150 mM NaCl, 1 mM EDTA, 1% Triton X-100), anti-myc antibody 9B11 and protein A beads, 4 °C; western blot; in some panels with overexpression or siRNA of NPM or PinX1
T2 sequence: T1 sequence

[3] = molecular target: T3, Myc-His-PinX1 (UniProt Q96BK5); test: as above
T3 sequence: T1 sequence

[4] = molecular target: T4, myc-PinX1-C (UniProt Q96BK5); test: as above
T4 sequence: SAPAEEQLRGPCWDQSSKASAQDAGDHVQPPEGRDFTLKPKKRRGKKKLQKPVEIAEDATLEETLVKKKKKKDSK

[5] = molecular target: T5, endogenous PinX1 (HEK293T) (human (endogenous in HEK293T)) (UniProt Q96BK5); test: co-IP; endogenous proteins from HEK293T lysate, precipitated with anti-PinX1 or anti-hTERT antibody and protein A beads; western blot
T5 sequence: T1 sequence

[6] = molecular target: myc-NPM aa83–294 (UniProt P06748); test: co-IP; transfected HEK293T lysates (50 mM Tris pH 7.6, 150 mM NaCl, 1 mM EDTA, 1% Triton X-100), anti-myc antibody 9B11 and protein A beads, 4 °C; western blot; in some panels with overexpression or siRNA of NPM or PinX1
[7] = molecular target: T6, nucleophosmin (NPM), purified wild type (UniProt P06748 1-294); test: pull-down; purified NPM (2 mg) immobilised on a 1 ml HiTrap NHS-activated column; 1 mg PinX1 truncation in PBS, 30 min at room temperature; washed with PBS, eluted with PBS with 1.5 M NaCl; SDS-PAGE; both purified
T6 construct: nucleophosmin, wild type, cloned into pRSETA-HisSumo; HisSumo tag removed by Sumo protease; Truncations end at aa294; also called wild-type NPM; purified NPM; source: E. coli BL21(DE3)-pLysS, purified (HisTrap HP, gel filtration)

[8] = molecular target: Myc-hTERT (human) (UniProt O14746); test: co-IP; transfected HEK293T lysates (50 mM Tris pH 7.6, 150 mM NaCl, 1 mM EDTA, 1% Triton X-100), anti-myc antibody 9B11 and protein A beads, 4 °C; western blot; in some panels with overexpression or siRNA of NPM or PinX1
[9] = molecular target: myc-NPM K54A (UniProt P06748); test: as above
[10] = molecular target: myc-NPM E61A + E63A (UniProt P06748); test: as above
[11] = molecular target: Myc-NPM (wild type) (UniProt P06748); test: as above
[12] = molecular target: myc-NPM E63A (UniProt P06748); test: as above
[13] = molecular target: myc-hTERT aa326–620 (human) (UniProt O14746); test: as above
[14] = molecular target: myc-NPM E56A (UniProt P06748); test: as above
[15] = molecular target: myc-NPM D55A (UniProt P06748); test: as above
[16] = molecular target: myc-hTERT aa523–924 (human) (UniProt O14746); test: as above
[17] = molecular target: myc-NPM K73A (UniProt P06748); test: as above
[18] = molecular target: myc-hTERT aa170–546 (human) (UniProt O14746); test: as above
[19] = molecular target: myc-NPM E61A (UniProt P06748); test: as above

Molecule: FLAG-NPM (from UniProt P06748 1-294)
binding [2]: binds | binding [3]: binds

Molecule: endogenous hTERT (HEK293T) (from UniProt O14746 1-1132)
binding [2]: binds | binding [4]: binds | binding [5]: binds

Molecule: hTERT expressed from pCI-neo hTERT (from UniProt O14746 1-1132)
binding [3]: binds | binding [6]: no binding

B1: PinX1-M (aa142–254) (domain or fragment, UniProt Q96BK5 142-254)
chain: DLDCIFGKRQSKKTPEGDASPSTPEENETTTTSAFTIQEYFAKRMAALKNKPQVPVPGSDISETQVERKRGKKRNKEATGKDVESYLQPKAKRHTEGKPERAEAQERVAKKKS
binding [7]: binds weakly

B2: FLAG-PinX1 (protein, UniProt Q96BK5 1-328)
chain: T1 sequence
binding [8]: binds | binding [9]: binds | binding [10]: binds | binding [11]: binds | binding [12]: binds | binding [13]: binds | binding [14]: binds | binding [15]: binds | binding [16]: binds | binding [17]: binds | binding [18]: binds | binding [19]: binds

Further lines, results first:

binding [1]: no binding (tested: 1 mg loaded)
Molecule: NPM 117–294 (from UniProt P06748 117-294) (domain or fragment)

binding [5]: binds
Molecule: endogenous nucleophosmin (HEK293T) (from UniProt P06748 1-294)

binding [1]: no binding (tested: 1 mg loaded)
Molecule: NPM 193–294 (from UniProt P06748 193-294) (domain or fragment)

binding [7]: no binding (tested: 1 mg loaded)
B3: PinX1-N (aa1–142) (domain or fragment, UniProt Q96BK5 1-142)
chain: MSMLAERRRKQKWAVDPQNTAWSNDDSKFGQRMLEKMGWSKGKGLGAQEQGATDHIKVQVKNNHLGLGATINNEDNWIAHQDDFNQLLAELNTCHGQETTDSSDKKEKKSFSLEEKSKISKNRVHYMKFTKGKDLSSRSKTD
